# Reference: paper PMC4336329 (PLoS ONE, 2015)
# Screen size: about 310,000 compounds; about 14,000 (4.5%) showed an effect of 50% or more. The effect is printed as a negative number. Some of the results follow.
# Target: human ether-à-go-go-related gene (hERG) potassium channel (human, UniProt Q12809)
# Assay: primary screen, population patch clamp on CHO cells stably expressing hERG
# 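Also: peak tail current of the secondary pulse compared with the same well before compound.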
# human ether-à-go-go-related gene (hERG) potassium channel, sequence (Q12809 whole entry, looked up): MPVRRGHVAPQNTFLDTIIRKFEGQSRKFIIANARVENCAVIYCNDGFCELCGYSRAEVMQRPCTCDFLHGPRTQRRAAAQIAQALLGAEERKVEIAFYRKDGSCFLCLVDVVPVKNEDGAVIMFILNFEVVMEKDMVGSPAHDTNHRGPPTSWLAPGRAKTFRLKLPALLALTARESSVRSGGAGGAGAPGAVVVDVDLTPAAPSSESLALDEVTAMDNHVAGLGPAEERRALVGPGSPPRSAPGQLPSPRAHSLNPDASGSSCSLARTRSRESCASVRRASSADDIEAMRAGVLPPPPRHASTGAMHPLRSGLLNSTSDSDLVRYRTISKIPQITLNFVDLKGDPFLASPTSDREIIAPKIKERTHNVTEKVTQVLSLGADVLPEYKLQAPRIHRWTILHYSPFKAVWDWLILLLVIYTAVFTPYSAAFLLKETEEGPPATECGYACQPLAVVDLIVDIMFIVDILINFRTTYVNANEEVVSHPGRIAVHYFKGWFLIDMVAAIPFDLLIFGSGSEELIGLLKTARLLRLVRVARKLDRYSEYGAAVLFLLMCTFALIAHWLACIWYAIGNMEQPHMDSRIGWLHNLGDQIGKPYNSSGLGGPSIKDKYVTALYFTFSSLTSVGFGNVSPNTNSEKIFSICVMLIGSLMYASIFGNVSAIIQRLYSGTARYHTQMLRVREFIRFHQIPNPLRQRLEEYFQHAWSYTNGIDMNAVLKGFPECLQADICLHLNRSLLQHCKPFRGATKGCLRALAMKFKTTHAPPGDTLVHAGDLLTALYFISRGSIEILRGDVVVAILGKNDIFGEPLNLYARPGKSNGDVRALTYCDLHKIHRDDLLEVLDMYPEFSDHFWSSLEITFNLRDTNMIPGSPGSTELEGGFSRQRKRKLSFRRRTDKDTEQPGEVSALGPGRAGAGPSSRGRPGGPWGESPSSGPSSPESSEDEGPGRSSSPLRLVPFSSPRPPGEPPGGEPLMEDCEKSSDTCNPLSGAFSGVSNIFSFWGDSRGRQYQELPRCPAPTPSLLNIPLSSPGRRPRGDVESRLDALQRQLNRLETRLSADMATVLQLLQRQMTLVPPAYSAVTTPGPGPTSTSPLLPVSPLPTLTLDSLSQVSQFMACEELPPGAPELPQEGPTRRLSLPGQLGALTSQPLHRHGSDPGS
row,Structure (SMILES),"hERG current change (%, negative = inhibition) at 10uM [%]"
1,CCN(CC)S(=O)(=O)c1ccc(N(C)Cc2cccc(OC)c2OC)nc1,-3.21
2,Cc1cccnc1NC(=O)c1cc2c(=O)oc3ccccc3c2s1,14.6
3,COCCNC(=O)C(c1ccc(C)o1)N(C(=O)c1snc(C(N)=O)c1N)c1ccc(C)cc1 (stereo not drawn),-36.4
4,CC(=O)Nc1cccc(-c2nnc3c4ccccc4c(C)nn23)c1,-0.564
5,O=C(c1cc2ccccc2oc1=O)N(Cc1cccc(Br)c1)C1CCS(=O)(=O)C1 (stereo not drawn),-15.1
6,CCOc1ccc(C(=O)NCCCCNC(=O)c2ccc(OCC)cc2)cc1,21.8
7,CCCn1c(SCC(=O)N2CCOCC2)nnc1-c1ccncc1,-0.351
8,CCC(C)Sc1nc2c(c(=O)[nH]1)C(c1cccs1)C1=C(CCCC1=O)N2 (stereo not drawn),-16.9
9,CCNc1nc(NOC)nc(OCC#N)n1,17.9
10,CCOc1ccccc1N1CCN(C(=O)[C@@H]2CCCN2C2=NS(=O)(=O)c3ccccc32)CC1,-19.6
11,Cc1cc(C)nc(Nc2nc(=O)c3ccccc3s2)n1,2.62
12,O=C(C1=C[C@@H](C2CCCCC2)C[C@@H](OCCCCO)O1)N1CCN(Cc2ccc3c(c2)OCO3)CC1,-45.1
13,CCC(O)(C#CCN1CCCCC1)CC,-1.39
14,O=C(COc1ncnc2ccccc12)Nc1ccc(S(=O)(=O)N2CCOCC2)cc1,9.94
15,CC(C)OCCCNS(=O)(=O)c1ccc2c(c1)oc(=O)n2C,2.69
16,COc1ccc(/C=N/NC(=O)c2cc(-c3ccccc3OC)nc3ccccc23)cc1COC(C)=O,4.06
17,O=C(Cn1nc(C(F)(F)F)cc1C1CC1)Nc1ccccc1F,4.41
18,Fc1ccc(OCc2nc3ccccc3s2)cc1,3.98
19,Cn1c(=O)oc2cc(S(=O)(=O)Nc3ccc4c(c3)OCO4)ccc21,-2.86

row,Structure (SMILES),"hERG current change (%, negative = inhibition) at 10uM [%]"
1,CCOC(=O)SC1=N/C(=C\c2ccc(N(C)C)cc2)C(=O)S1,14.9
2,CCCc1ncc(CN2CCCCC2C(=O)Nc2ccc(Oc3ccccc3)nc2)cn1 (stereo not drawn),3.25
3,O=C(NC(=S)Nc1cccc(C(F)(F)F)c1)c1ccc2nonc2c1,10.8
4,CC1(C)CC(=O)C(C=NCC2CCCO2)=C(O)C1 (stereo not drawn),7.93
5,O=C(N/N=C/c1ccco1)c1cc(-c2cccc3ccccc23)n[nH]1,7.01
6,COc1ccc2oc(C(=O)N3CCc4ccccc43)c(C)c2c1,15.1
7,COCc1nc(-c2ccc(-c3ccccc3)nc2OC)no1,-2.5
8,C/C(=N\NC(=O)c1c[nH]c2ccccc12)c1ccc(C)o1,-2.66
9,O=C(NCCN1CCCC1)c1ccc(CS(=O)(=O)c2c(Cl)cccc2Cl)o1,-45.5
10,Cc1nnc2ccc(-c3ccc(NS(=O)(=O)c4ccc(Cl)s4)cc3)nn12,0.314
11,Cc1c(NC(=O)c2cccc(NC(=O)Cc3ccccc3F)c2)c(=O)n(-c2ccccc2)n1C,3.2
12,O=C(Nc1ccccc1-c1ccccc1NC(=O)c1ccco1)c1ccco1,9.04
13,Cc1ccc(C)c(NC(=S)NC23CN4CN(CN(C4)C2)C3)c1,17.7
14,CCc1nnc(SCC(=O)Nc2ccccc2)nc1CC,-6.49
15,CC1C(O)=C(c2nc3ccccc3[nH]2)C(=N)N1c1ccccc1 (stereo not drawn),-33
16,CCOC(=O)c1sc(N)nc1C(C)(C)C,1.39
17,COc1cccc(NC(=O)CSc2nnc(Cc3ccc(C)cc3)c(=O)n2N)c1,-33.5
18,Cc1ccc(C2(C)NC(=O)N(CC(=O)Nc3ccc(S(=O)(=O)Nc4nccs4)cc3)C2=O)cc1 (stereo not drawn),14.4
19,CCOC(=O)N1CCN(C(=O)COC(=O)C2CCN(S(=O)(=O)c3c(Cl)cccc3Cl)CC2)CC1,-38.1

row,Structure (SMILES),"hERG current change (%, negative = inhibition) at 10uM [%]"
1,Cc1c(OCC(=O)Nc2cccnc2)ccc2c3c(c(=O)oc12)CCC3,6.27
2,COc1ccccc1NC1=C(N2CCCCC2)C(=O)c2ccccc2C1=O,-5.01
3,COc1cc(C(=O)N2CCN(C(=O)C3CCCO3)CC2)cc(OC)c1OC (stereo not drawn),2.7
4,Cc1cccnc1NC(=O)Nc1cccc(Cl)c1,-2.02
5,COc1cc(OC)c2c(-c3ccccc3)cc(=O)oc2c1C(CC(=O)N1CCOCC1)c1ccc2c(c1)OCO2 (stereo not drawn),1.51
6,CN(C)c1cccc(C(=O)OCC(=O)NC2CCCC2)c1,26.2
7,O=C(Nc1ccc2c(c1)OCO2)c1ccc(Cl)s1,-2.22
8,O=C(Nc1ccccc1N1CCCCC1)c1ccc(F)cc1,5.02
9,CCOc1ccc(CC(=O)OCn2nnc3ccccc3c2=O)cc1,11.4
10,COc1ccc(CNC(=O)CCSCc2cccc(Cl)c2)cc1,-17
11,Cc1ccc(Cn2c(Cc3ccccc3)nc3ccccc32)cc1,-10.1
12,O=C(CSc1nnc([C@@H]2CCCN2)o1)c1ccc(Cl)cc1,-9.42
13,COc1cc(/C=N/N=C(N)N)ccc1OCc1ccccc1Cl,-48.2
14,COc1ccc(CCN2C(=O)CC(NNC(=O)c3ccccc3Br)C2=O)cc1 (stereo not drawn),-19
15,Cn1ncc([N+](=O)[O-])c1C(=O)Nc1nc2ccccc2n1CCN1CCCCC1,-25.1
16,O=c1ccc2ccc(OCc3nnc(-c4ccccc4Br)o3)cc2o1,4.87
17,O=C1CCCN1C(=O)COc1ccccc1[N+](=O)[O-],13.7
18,O=C(Nc1ccc(F)cc1)c1cncs1,5.86
19,COc1ccccc1N(C(=O)CNC(=O)c1ccco1)C(C(=O)NC1CCCC1)c1ccco1 (stereo not drawn),10.8
